Drawing on publication PMC10668032, this text covers binding signal for 172 sequences.

The list shows a part of the results. At the low end of the ranking the order means little.

The experiment deals with SIX1-Q177R homeodomain (UniProt Q15475). Description: universal protein binding microarray. As to conditions: Universal all-10-mer PBM (8x60K, AMADID 030236), 300 nM GST-tagged protein, Alexa Fluor 488 anti-GST; buffer, salt, pH and temperature not stated; high values mean tight binding; most listed sequences are background and not binding sites; double strand, one strand shown.
As for GACCCCCA, the binding signal came out at 0.233 E-score.

With ATGCATGG, the binding signal is -0.052 E-score.

For TATTTGGA, the binding signal is -0.16 E-score.

Take AGATCCTA: the binding signal is -0.145 E-score.

As for AAACGACT, the binding signal is -0.0726 E-score.

GGGACTGA: the binding signal was -0.127 E-score.

In the case of CATTCCAC, the binding signal is -0.145 E-score.

Take ACGTGTAT: the binding signal stood at 0.321 E-score.

For the sequence ATAGCCAT, the binding signal is -0.105 E-score.

For ACAGTCAA, the binding signal is -0.101 E-score.

For AGGGCGCG, the binding signal amounted to 0.0639 E-score.

As for AACGAGTA, the binding signal was -0.0303 E-score.

For the sequence AGTTTGCC, the binding signal was -0.173 E-score.

Turning to CACAACCC, the binding signal is 0.124 E-score.

Consider CAGGATTC, for which the binding signal worked out at 0.0219 E-score.

In the case of GGGATCCC, the binding signal was 0.31 E-score.

Turning to AAATTCCT, the binding signal was -0.271 E-score.

Take CGTATCAC: the binding signal came out at 0.162 E-score.

In the case of AATGCTGA, the binding signal is -0.0431 E-score.

For the sequence GATCCACC, the binding signal is 0.158 E-score.

With CTCTTAGC, the binding signal was -0.0641 E-score.

Take ACCGGCTC: the binding signal came out at 0.0775 E-score.

Turning to ACATAAAC, the binding signal was -0.101 E-score.

Regarding AGAGGGTG, the binding signal was 0.318 E-score.

Turning to GTAAGGAC, the binding signal was -0.0271 E-score.

AGCCGGCC: the binding signal is -0.0412 E-score.

As to CACGACGC, the binding signal amounted to 0.151 E-score.

In the case of ACTGCGCT, the binding signal was -0.0156 E-score.

With CTGACTGC, the binding signal is 0.079 E-score.

Take ACGGTTAG: the binding signal is 0.0843 E-score.

With ACTAGCCG, the binding signal amounted to 0.0904 E-score.

As to CATCGTTC, the binding signal was -0.0885 E-score.

In the case of AACCCGAA, the binding signal was 0.0146 E-score.

For AGACCGAT, the binding signal is -0.0232 E-score.

GCAAGGCA: the binding signal is -0.306 E-score.

With AACAGAGA, the binding signal was -0.128 E-score.

In the case of CAAGCTAA, the binding signal is -0.172 E-score.

In the case of AGCACCGA, the binding signal was determined as 0.197 E-score.

On to GGTTAGAA, for which the binding signal turned out to be 0.147 E-score.

Take CGGCGTGA: the binding signal amounted to 0.0302 E-score.

AGAACCTG: the binding signal is -0.0509 E-score.

Regarding GGAGCGTA, the binding signal was -0.161 E-score.

As to CGGAGATC, the binding signal was -0.17 E-score.

Turning to CAGTGTCA, the binding signal is 0.458 E-score.

On to GACGTTAA, for which the binding signal is -0.172 E-score.

As to TAGCAGGA, the binding signal is -0.17 E-score.

For the sequence CTATACCA, the binding signal stood at 0.118 E-score.

Turning to CAGAGAGA, the binding signal is -0.0384 E-score.

As to AAATGTCA, the binding signal was 0.0139 E-score.

With TCGGTTAA, the binding signal was 0.0271 E-score.

As for CTGGTAAA, the binding signal was -0.254 E-score.

Take GTTTGTTA: the binding signal was -0.0518 E-score.

For the sequence CTTTTTGA, the binding signal was -0.235 E-score.

On to GATGACCC, for which the binding signal was 0.211 E-score.

As for AACTAGGG, the binding signal stood at 0.0253 E-score.

On to CCCGTTCG, for which the binding signal turned out to be 0.00966 E-score.

With CGACTTGC, the binding signal was -0.261 E-score.

As for GGGTTCTA, the binding signal came out at 0.0617 E-score.

For CGAGGACA, the binding signal was found to be 0.0373 E-score.

Regarding CTGCGCCC, the binding signal was -0.105 E-score.

As for GCGTTCAA, the binding signal is -0.186 E-score.

With CGCCTCAG, the binding signal is -0.0149 E-score.

ACTCTTAG: the binding signal was found to be 0.132 E-score.

For AACTGATC, the binding signal came out at 0.086 E-score.

For CCTTTGCA, the binding signal was -0.0239 E-score.

Regarding CAGTGGGG, the binding signal was determined as 0.131 E-score.

On to GGGAATCA, for which the binding signal was -0.0836 E-score.

On to AACACATC, for which the binding signal was 0.037 E-score.

On to CCATACCA, for which the binding signal amounted to 0.0476 E-score.

In the case of TAATCGTA, the binding signal is -0.0691 E-score.

For ATAGTGAC, the binding signal was found to be 0.0607 E-score.

Consider CATCCTAG, for which the binding signal was -0.0156 E-score.

Regarding AAACGGGA, the binding signal was 0.0725 E-score.

Take CAGCGAAC: the binding signal is -0.0555 E-score.

Consider AAGGTGGT, for which the binding signal stood at 0.151 E-score.

With CCTGGTGC, the binding signal turned out to be 0.126 E-score.

Take GTCGGAGA: the binding signal is -0.0854 E-score.

Regarding CTAATTCC, the binding signal is -0.135 E-score.

Consider ACGCAAGA, for which the binding signal is -0.138 E-score.

Regarding ACTATGAG, the binding signal is -0.0513 E-score.

On to CCAAGCGA, for which the binding signal came out at 0.06 E-score.

In the case of CGGAGAAG, the binding signal is -0.0422 E-score.

Take AGGCACCG: the binding signal is 0.0283 E-score.

AATTGGCT: the binding signal was -0.239 E-score.

Regarding CACCGCCA, the binding signal came to 0.291 E-score.

On to TAGTCACA, for which the binding signal turned out to be 0.149 E-score.

For the sequence CTAGTCCA, the binding signal is -0.0936 E-score.

Regarding TATTTCCA, the binding signal was -0.0671 E-score.

As to AAAAAACT, the binding signal was -0.0851 E-score.

For CGCCGGCA, the binding signal is -0.087 E-score.

Consider AAATCTGA, for which the binding signal came to 0.0413 E-score.

GGGCTAAA: the binding signal is 0.013 E-score.

Regarding GATACCTA, the binding signal was 0.327 E-score.

On to AACGCTGG, for which the binding signal worked out at 0.0674 E-score.

Consider TCGCTAGA, for which the binding signal is -0.188 E-score.

On to GCTCATCA, for which the binding signal is -0.0259 E-score.

For GGTCTGGA, the binding signal was -0.115 E-score.

For AGAGGGCA, the binding signal was -0.133 E-score.

Consider AACGCCGA, for which the binding signal is 0.0799 E-score.

For the sequence CGAGCTTC, the binding signal stood at 0.0487 E-score.

On to AGGGAGCA, for which the binding signal was -0.161 E-score.

Consider GAGCTAGC, for which the binding signal is -0.0695 E-score.

Take CAAGTCGA: the binding signal is -0.252 E-score.

Take AGTTGGCG: the binding signal is -0.0842 E-score.

In the case of CTTCGTGC, the binding signal came to 0.00645 E-score.

For ATATCGAT, the binding signal was -0.0929 E-score.

In the case of GAATTCTC, the binding signal was -0.25 E-score.

Turning to GTGGGGTA, the binding signal turned out to be 0.278 E-score.

Turning to CTTGGCGC, the binding signal was -0.162 E-score.

Regarding CTATTCAC, the binding signal was found to be 0.0248 E-score.

Turning to CAGAATCG, the binding signal is -0.111 E-score.

AGGCACTA: the binding signal was -0.108 E-score.

Take CGGCGACA: the binding signal is 0.064 E-score.

In the case of AGCGGAGC, the binding signal is -0.19 E-score.

On to CGTCGAAA, for which the binding signal was -0.282 E-score.

For the sequence AGCTTGAG, the binding signal was -0.0536 E-score.

Turning to GTTTAGCA, the binding signal was -0.0902 E-score.

Consider ACAAGCAC, for which the binding signal turned out to be 0.0981 E-score.

Turning to GCGCCCGA, the binding signal is -0.0332 E-score.

On to CTGGTGTA, for which the binding signal is 0.484 E-score.

Take CCAGATCG: the binding signal stood at 0.126 E-score.

For AAGGCCAC, the binding signal is -0.0875 E-score.

CCGTACGG: the binding signal worked out at 0.108 E-score.

ATAGGTCC: the binding signal was -0.181 E-score.

As for CAAAAAGC, the binding signal was -0.146 E-score.

On to ACTAGTCG, for which the binding signal turned out to be 0.0985 E-score.

For the sequence TACCGTGA, the binding signal stood at 0.0532 E-score.

In the case of CTCCCGAA, the binding signal turned out to be 0.00455 E-score.

Take CTGTGTTA: the binding signal was 0.114 E-score.

Consider AGACTACT, for which the binding signal is -0.107 E-score.

In the case of CCGTTCAC, the binding signal was -0.0936 E-score.

For the sequence TAAGTAAA, the binding signal was -0.288 E-score.

Take CCTATTTA: the binding signal is -0.0674 E-score.

With GAGTAGTA, the binding signal stood at 0.0475 E-score.

Turning to CTGATACC, the binding signal is 0.312 E-score.

On to ACACAGCC, for which the binding signal was determined as 0.164 E-score.

In the case of AATTAGTG, the binding signal was found to be 0.111 E-score.

Turning to ATACGTTC, the binding signal was -0.147 E-score.

With AGGACGAC, the binding signal is -0.0215 E-score.

For the sequence ACTACCTC, the binding signal was 0.045 E-score.

Turning to GGAGCGCA, the binding signal is -0.154 E-score.

As for AATAAAAC, the binding signal was -0.0472 E-score.

For the sequence TATAGTCA, the binding signal was -0.19 E-score.

For the sequence GAGCAATC, the binding signal was -0.144 E-score.

In the case of CGACGACC, the binding signal worked out at 0.0183 E-score.

Consider GTCCTAAC, for which the binding signal is -0.0314 E-score.

Regarding CACTCGCA, the binding signal came to 0.264 E-score.

GACTATGA: the binding signal is -0.231 E-score.

Regarding ATAACTCC, the binding signal is 0.181 E-score.

With GCCGGTCC, the binding signal was -0.095 E-score.

For the sequence CCTGGTAG, the binding signal was -0.0392 E-score.

Take ACCCCAGT: the binding signal is 0.27 E-score.

With CTGGCAAA, the binding signal is -0.124 E-score.

With GACTCAAA, the binding signal was -0.0712 E-score.

On to AGGAGGAA, for which the binding signal was -0.151 E-score.

For CGTTCCTA, the binding signal is -0.103 E-score.

For GTTCGAAC, the binding signal is 0.284 E-score.

On to AGACCACC, for which the binding signal was -0.135 E-score.

Turning to GCTGTTAC, the binding signal was -0.225 E-score.

As for CGCACTCA, the binding signal was -0.00377 E-score.

In the case of AACCATCT, the binding signal came to 0.0146 E-score.

For the sequence ATAGCCGA, the binding signal was -0.112 E-score.

As for GTAATAAA, the binding signal is 0.0109 E-score.

Regarding TACGTGAA, the binding signal was -0.0509 E-score.

For CTCTCGAA, the binding signal is -0.0527 E-score.

On to AGCCTGGA, for which the binding signal is -0.142 E-score.

With AAGGGGCC, the binding signal was -0.0942 E-score.

Consider CATAGTCG, for which the binding signal was -0.213 E-score.

As for TATTTAAA, the binding signal was -0.0888 E-score.

For CCGGAACA, the binding signal is -0.0551 E-score.

As for TAGTCCGA, the binding signal is -0.245 E-score.

With CATCAACG, the binding signal is -0.0928 E-score.
